This is one part of the list.
Legend:
Assay in all cases: glycan array binding signal (z-score within array); higher = stronger binding
Details in all cases: glycan notation: IUPAC condensed, linker removed
[1] = molecular target: Gal(b1-3)GalNAc(a1-3)[Fuc(a1-2)]Gal(b1-4)Glc
Procedure, shortened: (§1)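 The binding signal is a Z-score computed within each array and averaged over linkers. Arrays of the same protein sequence at different concentrations or buffers were also averaged together. Data originate from 3228 arrays in the Consortium for Functional Glycomics database, kept only where the protein sequence was available.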

[2] = molecular target: Gal(b1-3)GalNAc(a1-3)[Fuc(a1-2)]Gal(b1-4)GlcNAc
Procedure, shortened: as §1

[3] = molecular target: Gal(b1-3)GalNAc(b1-3)Gal(a1-4)Gal(b1-4)Glc
Procedure, shortened: as §1

[4] = molecular target: Gal(b1-3)GalNAc(b1-4)Gal(b1-4)Glc
Procedure, shortened: as §1

[5] = molecular target: Gal(b1-3)GalNAc(b1-4)[Neu5Ac(a2-3)]Gal(b1-4)Glc
Procedure, shortened: as §1

[6] = molecular target: Gal(b1-3)GlcNAc
Procedure, shortened: as §1

[7] = molecular target: Gal(b1-3)GlcNAc(a1-3)Gal(b1-4)GlcNAc
Procedure, shortened: as §1

[8] = molecular target: Gal(b1-3)GlcNAc(a1-6)Gal(b1-4)GlcNAc
Procedure, shortened: as §1

[9] = molecular target: Gal(b1-3)GlcNAc(b1-2)Man(a1-3)[Gal(b1-3)GlcNAc(b1-2)Man(a1-6)]Man(b1-4)GlcNAc(b1-4)GlcNAc
Procedure, shortened: as §1

[10] = molecular target: Gal(b1-3)GlcNAc(b1-2)Man(a1-3)[Gal(b1-3)GlcNAc(b1-2)Man(a1-6)]Man(b1-4)GlcNAc(b1-4)[Fuc(a1-6)]GlcNAc
Procedure, shortened: as §1

[11] = molecular target: Gal(b1-3)GlcNAc(b1-2)Man(a1-3)[GlcNAc(b1-4)][Gal(b1-3)GlcNAc(b1-2)Man(a1-6)]Man(b1-4)GlcNAc(b1-4)GlcNAc
Procedure, shortened: as §1

[12] = molecular target: Gal(b1-3)GlcNAc(b1-2)[Gal(b1-3)GlcNAc(b1-6)]Man(a1-6)[Gal(b1-3)GlcNAc(b1-2)Man(a1-3)]Man(b1-4)GlcNAc(b1-4)GlcNAc
Procedure, shortened: as §1

[13] = molecular target: Gal(b1-3)GlcNAc(b1-3)Gal(b1-3)GlcNAc
Procedure, shortened: as §1

[14] = molecular target: Gal(b1-3)GlcNAc(b1-3)Gal(b1-4)Glc
Procedure, shortened: as §1

[15] = molecular target: Gal(b1-3)GlcNAc(b1-3)Gal(b1-4)GlcNAc
Procedure, shortened: as §1

[16] = molecular target: Gal(b1-3)GlcNAc(b1-3)Gal(b1-4)GlcNAc(b1-6)[Gal(b1-3)GlcNAc(b1-3)]Gal(b1-4)Glc
Procedure, shortened: as §1

[17] = molecular target: Gal(b1-3)GlcNAc(b1-3)Gal(b1-4)[Fuc(a1-3)]GlcNAc(b1-6)[Gal(b1-3)GlcNAc(b1-3)]Gal(b1-4)Glc
Procedure, shortened: as §1

[18] = molecular target: Gal(b1-3)GlcNAc(b1-3)GalNAc
Procedure, shortened: as §1

[19] = molecular target: Gal(b1-3)GlcNAc(b1-6)Gal(b1-4)GlcNAc
Procedure, shortened: as §1

[20] = molecular target: Gal(b1-3)GlcNAc(b1-6)GalNAc
Procedure, shortened: as §1

[21] = molecular target: Gal(b1-3)GlcNAc6S
Procedure, shortened: as §1

[22] = molecular target: Gal(b1-3)[Fuc(a1-4)]GlcNAc
Procedure, shortened: as §1

[23] = molecular target: Gal(b1-3)[Fuc(a1-4)]GlcNAc(b1-2)Man(a1-3)[Gal(b1-3)[Fuc(a1-4)]GlcNAc(b1-2)Man(a1-6)]Man(b1-4)GlcNAc(b1-4)GlcNAc
Procedure, shortened: as §1

[24] = molecular target: Gal(b1-3)[Fuc(a1-4)]GlcNAc(b1-2)Man(a1-3)[Gal(b1-3)[Fuc(a1-4)]GlcNAc(b1-2)Man(a1-6)]Man(b1-4)GlcNAc(b1-4)[Fuc(a1-6)]GlcNAc
Procedure, shortened: as §1

[25] = molecular target: Gal(b1-3)[Fuc(a1-4)]GlcNAc(b1-3)Gal(b1-3)[Fuc(a1-4)]GlcNAc
Procedure, shortened: as §1

[26] = molecular target: Gal(b1-3)[Fuc(a1-4)]GlcNAc(b1-3)Gal(b1-4)GlcNAc
Procedure, shortened: as §1

[27] = molecular target: Gal(b1-3)[Fuc(a1-4)]GlcNAc(b1-3)Gal(b1-4)[Fuc(a1-3)]GlcNAc
Procedure, shortened: as §1

[28] = molecular target: Gal(b1-3)[Fuc(a1-4)]GlcNAc(b1-6)GalNAc
Procedure, shortened: as §1

[29] = molecular target: Gal(b1-3)[GlcNAc(b1-6)]GalNAc
Procedure, shortened: as §1

[30] = molecular target: Gal(b1-3)[Neu5Ac(a2-6)]GalNAc
Procedure, shortened: as §1

[31] = molecular target: Gal(b1-3)[Neu5Ac(a2-6)]GlcNAc(b1-6)Gal(b1-4)Glc
Procedure, shortened: as §1

[32] = molecular target: Gal(b1-3)[Neu5Ac(b2-6)]GalNAc
Procedure, shortened: as §1

[33] = molecular target: Gal(b1-4)Gal
Procedure, shortened: as §1

[34] = molecular target: Gal(b1-4)GalNAc(a1-3)[Fuc(a1-2)]Gal(b1-4)GlcNAc
Procedure, shortened: as §1

[35] = molecular target: Gal(b1-4)GalNAc(b1-3)[Fuc(a1-2)]Gal(b1-4)GlcNAc
Procedure, shortened: as §1

[36] = molecular target: Gal(b1-4)Glc
Procedure, shortened: as §1

[37] = molecular target: Gal(b1-4)Glc6S
Procedure, shortened: as §1

[38] = molecular target: Gal(b1-4)GlcNAc
Procedure, shortened: as §1

[39] = molecular target: Gal(b1-4)GlcNAc(a1-6)Gal(b1-4)GlcNAc
Procedure, shortened: as §1

[40] = molecular target: Gal(b1-4)GlcNAc(b1-2)Man
Procedure, shortened: as §1

[41] = molecular target: Gal(b1-4)GlcNAc(b1-2)Man(a1-3)Man(b1-4)GlcNAc(b1-4)GlcNAc
Procedure, shortened: as §1

[42] = molecular target: Gal(b1-4)GlcNAc(b1-2)Man(a1-3)[Gal(b1-4)GlcNAc(b1-2)Man(a1-6)]Man(b1-4)GlcNAc(b1-4)GlcNAc
Procedure, shortened: as §1

[43] = molecular target: Gal(b1-4)GlcNAc(b1-2)Man(a1-3)[Gal(b1-4)GlcNAc(b1-2)Man(a1-6)]Man(b1-4)GlcNAc(b1-4)[Fuc(a1-6)]GlcNAc
Procedure, shortened: as §1

[44] = molecular target: Gal(b1-4)GlcNAc(b1-2)Man(a1-3)[Gal(b1-4)GlcNAc(b1-2)][GlcNAc(b1-4)]Man(b1-4)GlcNAc(b1-4)GlcNAc
Procedure, shortened: as §1

[45] = molecular target: Gal(b1-4)GlcNAc(b1-2)Man(a1-3)[GlcNAc(b1-2)Man(a1-6)]Man(b1-4)GlcNAc(b1-4)GlcNAc
Procedure, shortened: as §1

B1: Calsepa (Calystegia sepium), P93114 (protein)
chain: MAVPMDTISGPWGNNGGNFWSFRPVNKINQIVISYGGGGNNPIALTFSSTKADGSKDTITVGGGGPDSITGTEMVNIGTDEYLTGISGTFGIYLDNNVLRSITFTTNLKAHGPYGQKVGTPFSSANVVGNEIVGFLGRSGYYVDAIGTYNRHK
glycan array binding signal (z-score) [1]: -0.209
glycan array binding signal (z-score) [2]: -0.222
glycan array binding signal (z-score) [3]: -0.249
glycan array binding signal (z-score) [4]: -0.252
glycan array binding signal (z-score) [5]: -0.253
glycan array binding signal (z-score) [6]: -0.249
glycan array binding signal (z-score) [7]: -0.254
glycan array binding signal (z-score) [8]: -0.271
glycan array binding signal (z-score) [9]: 1.8
glycan array binding signal (z-score) [10]: -0.077
glycan array binding signal (z-score) [11]: 4.21
glycan array binding signal (z-score) [12]: 0.886
glycan array binding signal (z-score) [13]: -0.249
glycan array binding signal (z-score) [14]: -0.252
glycan array binding signal (z-score) [15]: -0.25
glycan array binding signal (z-score) [16]: -0.272
glycan array binding signal (z-score) [17]: -0.274
glycan array binding signal (z-score) [18]: -0.272
glycan array binding signal (z-score) [19]: -0.274
glycan array binding signal (z-score) [20]: -0.272
glycan array binding signal (z-score) [21]: -0.273
glycan array binding signal (z-score) [22]: -0.25
glycan array binding signal (z-score) [23]: -0.073
glycan array binding signal (z-score) [24]: -0.242
glycan array binding signal (z-score) [25]: -0.248
glycan array binding signal (z-score) [26]: -0.252
glycan array binding signal (z-score) [27]: -0.253
glycan array binding signal (z-score) [28]: -0.252
glycan array binding signal (z-score) [29]: -0.249
glycan array binding signal (z-score) [30]: -0.243
glycan array binding signal (z-score) [31]: -0.248
glycan array binding signal (z-score) [32]: -0.245
glycan array binding signal (z-score) [33]: -0.26
glycan array binding signal (z-score) [34]: -0.249
glycan array binding signal (z-score) [35]: -0.241
glycan array binding signal (z-score) [36]: -0.247
glycan array binding signal (z-score) [37]: -0.248
glycan array binding signal (z-score) [38]: -0.258
glycan array binding signal (z-score) [39]: -0.25
glycan array binding signal (z-score) [40]: -0.274
glycan array binding signal (z-score) [41]: 3.34
glycan array binding signal (z-score) [42]: 1.98
glycan array binding signal (z-score) [43]: 0.144
glycan array binding signal (z-score) [44]: 5.25
glycan array binding signal (z-score) [45]: 2.95
